The values that follow come from the supplement of paper PMC4967469.

pIC50: −log10 of the molar value. The IC50 comes from the fitted curve, where viability falls to half of the control; where the fit passes the top or lowest dose, that dose stands as a limit. AUC, from the same fit, is the share of area under the viability curve across the 256-fold dose range; it is 1 without any effect and falls as sensitivity rises. The top dose, if marked as inferred, was derived from the fitted curves, not read from the paper. For part of these data: Where an entry number is given, a second screen of the drug exists; the two often differ.

As usually defined, the pIC50 is the negative decadic logarithm of the IC50, by convention in mol/L.

Compound in the first assay: COc1cc(-c2nn([C@H]3CC[C@H](N4CCN(C(C)=O)CC4)CC3)c3ncnc(N)c23)ccc1NC(=O)c1cc2ccccc2n1C [A-770041]
Kind of assay: Viability of human cancer cell lines after 72 h of drug (GDSC screen). To be noted: top dose 5.12 µM; top dose inferred. How it is done: (§1)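 Human cancer cell lines in 384-well plates, medium with 10% serum, drug for 72 h over a 256-fold dose range (nine 2-fold or five 4-fold steps up to the top dose). Adherent lines were fixed and stained with the nucleic acid dye Syto60, suspension lines read with resazurin; signal relative to control wells, capped at 0 and 100%. One two-parameter sigmoid per drug and line, fitted in a mixed model over all curves with the slope shared within a line.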
Regarding L-1236 (Hodgkin lymphoma, suspension), the AUC turned out to be 0.967 and the negative logarithm of the IC50 (pIC50) was < 5.29.

Compound in the next assay: Cc1ccc(-n2nc(C(C)(C)C)cc2NC(=O)Nc2ccc(OCCN3CCOCC3)c3ccccc23)cc1 [BIRB 0796]
The description is as above. To be noted: top dose 10 µM; top dose inferred. How it is done: as §1
Regarding HDLM-2 (Hodgkin lymphoma, suspension), the AUC came to 0.959 and the negative-log IC50 (pIC50) was < 5.00.

With HH (T-cell leukaemia, suspension), the AUC turned out to be 0.948 and the pIC50 is < 5.00.

As to HT (B-cell lymphoma, suspension), the AUC was 0.969 and the negative logarithm of the IC50 (pIC50) is < 5.00.

For the cell line IMR-5 (neuroblastoma, adherent), the AUC was found to be 0.992 and the pIC50 was < 5.00.

Regarding “IST-SL1 (small cell lung carcinoma, semi-adherent)”, the AUC turned out to be 0.959 and the pIC50 was < 5.00.

On to JM1 (B-cell lymphoma, suspension), for which the AUC worked out at 0.979 and the pIC50 was < 5.00.

JVM-2 (lymphoid neoplasm, suspension): the AUC amounted to 0.975 and the pIC50 was < 5.00.

Take JVM-3 (lymphoid neoplasm, suspension): the AUC came to 0.944 and the negative-log IC50 (pIC50) is < 5.00.

For “JiyoyeP-2003 (Burkitt lymphoma, suspension)”, the AUC was determined as 0.99 and the pIC50 was < 5.00.

Turning to “KARPAS-45 (lymphoblastic leukaemia, suspension)”, the AUC was determined as 0.991 and the pIC50 is < 5.00.

For “KARPAS-299 (anaplastic large cell lymphoma, suspension)”, the AUC came out at 0.988 and the pIC50 is < 5.00.

In the case of “KARPAS-422 (B-cell lymphoma, suspension)”, the AUC was found to be 0.982 and the pIC50 was < 5.00.

For “KE-37 (lymphoblastic leukaemia, suspension)”, the AUC was found to be 0.994 and the negative-log IC50 (pIC50) was < 5.00.

Consider KM-H2 (Hodgkin lymphoma, suspension), for which the AUC stood at 0.993 and the negative logarithm of the IC50 (pIC50) was < 5.00.

Regarding “KMOE-2 (acute myeloid leukaemia, suspension)”, the AUC stood at 0.973 and the pIC50 is < 5.00.

Consider KNS-81-FD (glioma, adherent), for which the AUC came out at 0.913 and the pIC50 is < 5.00.

For the cell line KS-1 (glioma, adherent), the AUC came out at 0.975 and the pIC50 is < 5.00.

“KU812 (chronic myeloid leukaemia, suspension)”: the AUC is 0.988 and the pIC50 was < 5.00.

As for KY821 (leukaemia, suspension), the AUC stood at 0.992 and the pIC50 was < 5.00.

Consider L-363 (myeloma, suspension), for which the AUC was 0.985 and the negative logarithm of the IC50 (pIC50) is < 5.00.

On to L-540 (Hodgkin lymphoma, suspension), for which the AUC is 0.923 and the negative-log IC50 (pIC50) was < 5.00.

For the cell line L-1236 (Hodgkin lymphoma, suspension), the AUC was determined as 0.992 and the negative-log IC50 (pIC50) was < 5.00.

Compound in a further assay: Cc1cccc(-c2[nH]c(C(C)(C)C)nc2-c2ccc3nccnc3c2)n1 [SB-525334]
The description is as above. To be noted: top dose 20 µM; top dose inferred. How it is done:
as §1
On to HDLM-2 (Hodgkin lymphoma, suspension), for which the AUC amounted to 0.984 and the negative-log IC50 (pIC50) was < 4.70.

Turning to HH (T-cell leukaemia, suspension), the AUC was found to be 0.933 and the pIC50 was < 4.70.

On to HT (B-cell lymphoma, suspension), for which the AUC came to 0.969 and the pIC50 was < 4.70.

Consider IMR-5 (neuroblastoma, adherent), for which the AUC came out at 0.892 and the negative logarithm of the IC50 (pIC50) was 4.77.

Take “IST-SL1 (small cell lung carcinoma, semi-adherent)”: the AUC was found to be 0.889 and the pIC50 was < 4.70.

With JM1 (B-cell lymphoma, suspension), the AUC was found to be 0.872 and the pIC50 is 4.84.

For JVM-2 (lymphoid neoplasm, suspension), the AUC turned out to be 0.959 and the negative-log IC50 (pIC50) was < 4.70.

Consider JVM-3 (lymphoid neoplasm, suspension), for which the AUC is 0.945 and the pIC50 is < 4.70.

On to “JiyoyeP-2003 (Burkitt lymphoma, suspension)”, for which the AUC is 0.937 and the pIC50 is < 4.70.

Turning to “KARPAS-45 (lymphoblastic leukaemia, suspension)”, the AUC was determined as 0.937 and the negative logarithm of the IC50 (pIC50) is < 4.70.

Consider “KARPAS-299 (anaplastic large cell lymphoma, suspension)”, for which the AUC was 0.984 and the pIC50 was < 4.70.

On to “KARPAS-422 (B-cell lymphoma, suspension)”, for which the AUC was 0.976 and the pIC50 is < 4.70.

In the case of “KE-37 (lymphoblastic leukaemia, suspension)”, the AUC was determined as 0.969 and the pIC50 is < 4.70.

As to KM-H2 (Hodgkin lymphoma, suspension), the AUC was determined as 0.986 and the pIC50 was < 4.70.

Regarding “KMOE-2 (acute myeloid leukaemia, suspension)”, the AUC worked out at 0.96 and the negative-log IC50 (pIC50) was < 4.70.

Regarding KNS-81-FD (glioma, adherent), the AUC is 0.772 and the pIC50 was 4.97.

Consider KS-1 (glioma, adherent), for which the AUC came out at 0.856 and the pIC50 is < 4.70.

For the cell line “KU812 (chronic myeloid leukaemia, suspension)”, the AUC amounted to 0.954 and the negative logarithm of the IC50 (pIC50) is < 4.70.

Consider KY821 (leukaemia, suspension), for which the AUC came to 0.977 and the pIC50 is < 4.70.

Turning to L-363 (myeloma, suspension), the AUC worked out at 0.971 and the negative-log IC50 (pIC50) is < 4.70.

Consider L-540 (Hodgkin lymphoma, suspension), for which the AUC was determined as 0.965 and the negative logarithm of the IC50 (pIC50) was < 4.70.

Turning to L-1236 (Hodgkin lymphoma, suspension), the AUC was 0.943 and the negative logarithm of the IC50 (pIC50) was < 4.70.

Compound in another assay: O=C(c1cc(Cc2n[nH]c(=O)c3ccccc23)ccc1F)N1CCN(C(=O)C2CC2)CC1 [Olaparib]
Described as above. To be noted: top dose 5 µM; screen: GDSC drug entry 1017; top dose inferred. How it is done: as §1
As to HDLM-2 (Hodgkin lymphoma, suspension), the AUC came out at 0.976 and the pIC50 is < 5.30.

For the cell line HH (T-cell leukaemia, suspension), the AUC came to 0.976 and the pIC50 is < 5.30.

On to HT (B-cell lymphoma, suspension), for which the AUC turned out to be 0.989 and the pIC50 is < 5.30.

As to IMR-5 (neuroblastoma, adherent), the AUC was 0.972 and the pIC50 is < 5.30.

For “IST-SL1 (small cell lung carcinoma, semi-adherent)”, the AUC came to 0.979 and the pIC50 was < 5.30.

With JM1 (B-cell lymphoma, suspension), the AUC is 0.96 and the negative-log IC50 (pIC50) was < 5.30.

Regarding JVM-2 (lymphoid neoplasm, suspension), the AUC was 0.883 and the pIC50 was < 5.30.

As to JVM-3 (lymphoid neoplasm, suspension), the AUC turned out to be 0.87 and the negative logarithm of the IC50 (pIC50) is 5.32.

As to “JiyoyeP-2003 (Burkitt lymphoma, suspension)”, the AUC turned out to be 0.984 and the negative logarithm of the IC50 (pIC50) is < 5.30.

Take “KARPAS-45 (lymphoblastic leukaemia, suspension)”: the AUC is 0.982 and the pIC50 is < 5.30.

Consider “KARPAS-299 (anaplastic large cell lymphoma, suspension)”, for which the AUC amounted to 0.989 and the pIC50 is < 5.30.

Regarding “KARPAS-422 (B-cell lymphoma, suspension)”, the AUC stood at 0.986 and the pIC50 was < 5.30.

In the case of “KE-37 (lymphoblastic leukaemia, suspension)”, the AUC amounted to 0.99 and the pIC50 is < 5.30.

For KM-H2 (Hodgkin lymphoma, suspension), the AUC stood at 0.99 and the negative logarithm of the IC50 (pIC50) was < 5.30.

On to “KMOE-2 (acute myeloid leukaemia, suspension)”, for which the AUC was 0.984 and the pIC50 is < 5.30.

Turning to KNS-81-FD (glioma, adherent), the AUC was 0.976 and the negative logarithm of the IC50 (pIC50) was < 5.30.

Turning to KS-1 (glioma, adherent), the AUC came to 0.969 and the negative-log IC50 (pIC50) was < 5.30.

For “KU812 (chronic myeloid leukaemia, suspension)”, the AUC worked out at 0.961 and the negative-log IC50 (pIC50) is < 5.30.

As for KY821 (leukaemia, suspension), the AUC amounted to 0.984 and the negative-log IC50 (pIC50) was < 5.30.

In the case of L-363 (myeloma, suspension), the AUC worked out at 0.962 and the negative-log IC50 (pIC50) is < 5.30.

Regarding L-540 (Hodgkin lymphoma, suspension), the AUC worked out at 0.984 and the pIC50 was < 5.30.
